# From the supplement of paper PMC3334620
# Over roughly 33,000 sequences, “E-score (-0.5 to 0.5)” has its median near -0.011; the highest 2% begin near 0.28. Some of the results follow.
# Biological target: T1, Gcr1 (UniProt P07261)
# T1 sequence: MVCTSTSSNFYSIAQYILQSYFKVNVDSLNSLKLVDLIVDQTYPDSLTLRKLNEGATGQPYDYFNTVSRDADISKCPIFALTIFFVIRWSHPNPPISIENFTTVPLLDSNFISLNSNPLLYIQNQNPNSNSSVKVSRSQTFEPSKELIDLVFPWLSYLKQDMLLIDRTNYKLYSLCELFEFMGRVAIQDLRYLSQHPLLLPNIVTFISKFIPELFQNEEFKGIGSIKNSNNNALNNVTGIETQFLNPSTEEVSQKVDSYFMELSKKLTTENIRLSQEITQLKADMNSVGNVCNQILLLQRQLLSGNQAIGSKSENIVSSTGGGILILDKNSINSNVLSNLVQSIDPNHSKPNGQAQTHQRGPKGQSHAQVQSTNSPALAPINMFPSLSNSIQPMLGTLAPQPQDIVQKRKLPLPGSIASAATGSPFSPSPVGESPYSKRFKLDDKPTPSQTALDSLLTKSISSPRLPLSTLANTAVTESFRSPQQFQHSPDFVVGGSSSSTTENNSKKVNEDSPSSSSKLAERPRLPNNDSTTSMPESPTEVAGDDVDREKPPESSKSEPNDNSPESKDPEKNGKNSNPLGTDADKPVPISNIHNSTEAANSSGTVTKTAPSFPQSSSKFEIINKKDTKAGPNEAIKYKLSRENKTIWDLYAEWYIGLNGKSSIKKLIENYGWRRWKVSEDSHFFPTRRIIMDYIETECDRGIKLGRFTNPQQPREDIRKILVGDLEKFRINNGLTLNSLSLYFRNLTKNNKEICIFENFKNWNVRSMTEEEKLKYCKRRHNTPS
# Experiment: PBM E-score (8-mer binding enrichment) (E-score (-0.5 to 0.5)); higher = stronger / more preferred TF binding; most listed sequences are background and not binding sites
# Conditions: protein concentration: 100 nM; construct: GST-full length
# How it was run: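 PURExpress in vitro transcription/translation supplied GST-tagged yeast transcription factors, either full-length or DNA-binding domain. Applied at about 100-200 nM to universal all-10-mer Agilent arrays double-stranded by primer extension, the bound protein was detected with fluorescent anti-GST. E-scores, modified Wilcoxon-Mann-Whitney statistics, were given by the Universal PBM Analysis Suite to ungapped eight-base words pooled with their reverse complements after masliner normalisation.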
row,Sequence,PBM E-score
1,CATGCGCC,-0.22
2,GGTAGCAC,0.0683
3,GTTTCGGA,0.199
4,AGCATACA,-0.0119
5,GAATGCGA,0.0264
6,CTATCCAG,-0.101
7,AGTAGCTA,0.181
8,CACAACGC,-0.043
9,CCTCCCAG,-0.269
10,ATTATTTC,0.00814
11,AGGCCGTG,-0.129
12,AAGTAATT,0.104
13,GGGATCAA,0.146
14,GACGGACA,-0.264
15,AGCCTTAT,0.0318
16,GAGAGAGC,-0.133
17,CGGCCGAA,-0.188
18,CTCAAGCC,-0.0864
19,CGGTGGAG,-0.0338
20,ACGACTGA,-0.0299
21,CAACTCGA,-0.0754
22,AGTAGGCG,0.205
23,CTATAGTA,0.0817

row,Sequence,PBM E-score
1,TGAAACCA,0.106
2,ATTGTCTC,0.00727
3,CGCCATGA,-0.128
4,TACTGTAA,0.0376
5,AATTTCCG,0.155
6,ATATCAGG,0.0654
7,ACCCTCAA,-0.169
8,GGGACCCA,0.303
9,CGAGATGC,0.0363
10,ATCCTTGA,0.0086
11,GGTGGGAA,0.0991
12,CCTCCGCC,-0.168
13,AATAGCTG,-0.06
14,CACGCGCA,-0.0427
15,ATTTCAAA,0.00653
16,ACCGAGGG,-0.315
17,AAGAAATG,0.0597
18,CCTCACCA,0.143
19,AGGGCTCG,-0.314
20,ATTTTTGA,0.0473
21,AAGTGGTA,0.176
22,ATTTGGTA,0.23
23,CGATTAAA,0.13

row,Sequence,PBM E-score
1,GATCTGAC,-0.152
2,CTACTCTA,-0.077
3,AGCGCGGC,-0.0419
4,CGGGTAAA,0.112
5,CCCGGGTC,-0.0913
6,CATCCTCG,0.0352
7,CTATTGAG,0.0808
8,GATTAATC,-0.129
9,AGCGTTCC,0.0882
10,ACTTAATG,0.00444
11,AACTATTA,0.0296
12,CTGGTCCC,-0.131
13,CCAACGAG,0.00967
14,ATATGCAA,0.0123
15,GTCGCTAA,0.0152
16,ATATTATG,0.132
17,TTTCGAAA,-0.054
18,AGCCGATG,0.0755
19,AAATTAAC,0.0597
20,ACGGAGAT,-0.0711
21,ATTAGACA,0.0379
22,AGGTACTG,-0.0802
23,GGGACCAC,0.21

row,Sequence,PBM E-score
1,ACGCATAT,-0.15
2,CAATTATG,0.145
3,ACTGGCAT,0.124
4,CGGGGCCA,-0.0236
5,CACACCTA,-0.0263
6,ATCAAACA,-0.0652
7,AATCCCAA,0.225
8,ATATTGAT,0.155
9,CCTCGTTC,-0.0945
10,TATTACGA,0.109
11,CAGTCGCA,-0.107
12,ACGCATCT,0.151
13,GCATGTCC,-0.186
14,ACGCATAG,-0.117
15,ATCGTGTA,0.156
16,CTCGGAAC,0.0711
17,CTGTTCTA,-0.09
18,CATGATAA,-0.00435
19,CGGCTCAG,0.113
20,TGTAGACA,-0.0678
21,ACAAGCGC,-0.115
22,CTGCCACC,-0.00834
23,ACCGAATC,-0.0242

row,Sequence,PBM E-score
1,AATTGTAC,0.00173
2,ACGGCCCG,-0.186
3,CAGAGCAG,-0.0062
4,ACAAGAAT,0.252
5,CTTAAGCC,-0.206
6,ACTTCACA,-0.145
7,CCCAACGC,0.0251
8,CAACATAC,-0.0428
9,GAGTGCGA,-0.0623
10,GCATCCAC,0.452
11,GGTTTAAC,-0.0625
12,ACTTTGGA,0.208
13,CTGGGAAC,0.146
14,ACTGTTTG,-0.053
15,AGTATACA,-0.0609
16,GACTTAAA,-0.103
17,ACTCTCTC,-0.288
18,ATGCGTTG,0.0138
19,CTATGAAA,0.0846
20,ATATAACA,-0.00593
21,CCATATAC,0.0567
22,CAGCAGTC,-0.0813
23,AGGGCGGC,0.0238

row,Sequence,PBM E-score
1,ACACTTCT,-0.161
2,ATTGATAG,-0.156
3,AACCTTAC,-0.00831
4,CTGTGGTA,-0.00229
5,GCCAGAAA,0.236
6,ACTGTCCG,-0.14
7,TACAACAA,-0.00277
8,TGCGTACA,-0.0703
9,CGCTGAGA,0.0709
10,AATCTACC,0.0103
11,GTCTGTTA,-0.183
12,GTTCATAA,0.0771
13,GACACCTA,0.0961
14,CGTGTGAA,-0.0605
15,GCGATCTA,-0.061
16,CCAAGGAG,0.0296
17,CAGGTTCA,-0.346
18,CTGGACTA,-0.0579
19,AGCCATAT,-0.113
20,ATCGTGCA,-0.138
21,ATCGAGAC,-0.108
22,AATGGTTA,-0.0784
23,CCACGCCG,-0.106

row,Sequence,PBM E-score
1,AGATAATC,-0.0235
2,GATCCAGA,0.173
3,CAGCGATA,0.222
4,AAGGCAGA,-0.162
5,CTCTGGTC,-0.121
6,GTCTCCAC,0.08
7,ACGTACTC,-0.0721
8,CCCTATAA,0.141
9,CGATCCTC,-0.0506
10,TCCATAAA,0.251
11,CAGCCTAA,0.193
12,AAGGGACT,-0.202
13,GACACAGA,-0.154
14,AAGATTCA,-0.0204
15,AAGACTAT,-0.146
16,TATTAATA,0.277
17,CCATCGAG,-0.198
18,CCGCTCAG,0.0454
19,CCAACTAC,0.14
20,CTTCGCGC,0.0687
21,CAACACGG,0.0698
22,ACGGACAC,0.0529
23,CTCCTCGA,-0.185
